{"source": "patent US20230416330A1", "about": "“Optimized GIP Peptide Analogues” (Antag Therapeutics ApS, priority 2019, published 2023)", "type_in_all_cases": "cell-based", "key": {"human GIP receptor [1]": {"biological_target": "T1, human GIP receptor (Homo sapiens, UniProt P48546)", "T1 construct": "host or cells: HEK-293 cells, transient transfection (Lipofectamine 2000), cDNA in pCMV-Script vector", "T1 sequence (P48546 22-466)": "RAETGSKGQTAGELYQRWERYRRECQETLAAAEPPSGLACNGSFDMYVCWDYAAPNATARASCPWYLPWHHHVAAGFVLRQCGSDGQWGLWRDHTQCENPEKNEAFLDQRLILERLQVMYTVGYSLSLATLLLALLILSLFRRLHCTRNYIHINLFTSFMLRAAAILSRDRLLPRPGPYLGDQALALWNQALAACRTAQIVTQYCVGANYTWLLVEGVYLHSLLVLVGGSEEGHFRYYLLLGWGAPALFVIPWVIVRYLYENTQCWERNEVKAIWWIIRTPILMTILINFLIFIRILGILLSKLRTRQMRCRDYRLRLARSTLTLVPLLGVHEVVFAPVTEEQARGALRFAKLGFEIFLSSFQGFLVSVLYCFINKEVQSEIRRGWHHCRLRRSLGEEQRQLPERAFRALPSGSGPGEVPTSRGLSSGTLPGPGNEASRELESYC", "test": "cAMP assay Alternative 2 (Gaddum assay), antagonist potency pKb", "settings": "Table 2C, Gaddum equation, HEK-293 hGIPR; for pKb: single antagonist dose: […] AT705-AT718, 31, 6 nM AT719-AT725 and AT745-AT755, 100 nM AT739-AT744", "description": "(§1) HEK293 cells were cultured in 10% CO2 and 37° C. in Dulbecco's modified Eagle's medium supplemented with 10% fetal bovine serum, 2 mM glutamine, 180 units/ml penicillin, and 45 µg/ml streptomycin. Transient transfection with hGIPR for the CisBio assay from Table 2C was performed by using Lipofectamine 2000.\nAntagonist potency (pKb) was estimated in a functional setting. The estimated pKb values were calculated from the shifts of the agonist-concentration-response curves in the presence of a single dose of GIP peptide antagonists using the Gaddum equation: pKb=log(DR-1)-log(B), where DR (EC50′/EC50) is the dose ratio calculated from EC50 of GIP1-42 obtained in the presence and absence (EC50) of antagonist, and B is the antagonist concentration used.\nThe in vitro functional assessment of compounds towards human GIP receptor was determined in HEK-293 cells transiently expressing the receptor. On the day of the assay, cells were resuspended in HBSS buffer (Gibco, 14025-50) supplemented with […] (Gibco, 15630-106), 0.1% Pluronic F-68 (Gibco, 24040-032) and 0.1% casein (Sigma, C4765), and plated in 384-well plates at a density of 3500 cells/well. The GIP peptide analogues of the present disclosure were diluted in HBSS buffer supplemented with 20 mM HEPES, 0.1% pluronic, 0.1% casein and 500 uM IBMX. […] Increasing dose of agonist (GIP1-42) was subsequently added to cells and incubated for additionally 30 min at 37° C. The intracellular cAMP was quantitatively determined using the CisBio cAMP Dynamic 2 HTRF Assay Kit. The assay is based on a competition between native cAMP produced by cells and cAMP labeled with the dye d2 for binding to a cryptate labeled antibody. […]\n(§2) The cAMP-d2 conjugate and the antibody anti-cAMP-Cryptate, both diluted in lysis buffer provided in the kit, were added to the cells according to the manufacturer's protocol. The resulting competitive assay was incubated for 60 minutes at room temperature, and the signal was detected by using a PerkinElmer Envision® instrument with excitation at 320 nm and emission at 665 nm and 620 nm. […]"}, "human GIP receptor [2]": {"biological_target": "T1, human GIP receptor", "test": "cAMP assay Alternative 3 (Schild analysis), antagonist potency pKb", "settings": "Table 2D, slope fixed to 1, HEK-293 hGIPR", "description": "Antagonist potency was also determined by Schild analysis. GIP1-42 EC50 was measured in the absence of antagonist and EC50′ was measured in the presence of increasing concentrations of antagonist. These values were used to calculate a dose ratio (DR=EC50′/EC50) for each antagonist concentration, and log(DR-1) was plotted against log(antagonist concentration).\nThe in vitro functional assessment of compounds towards human GIP receptor was determined in HEK-293 cells transiently expressing the receptor. On the day of the assay, cells were resuspended in HBSS buffer (Gibco, 14025-50) supplemented with […] (Gibco, 15630-106), 0.1% Pluronic F-68 (Gibco, 24040-032) and 0.1% casein (Sigma, C4765), and plated in 384-well plates at a density of 3500 cells/well. […] The intracellular cAMP was quantitatively determined using the CisBio cAMP Dynamic 2 HTRF Assay Kit. […]\nas §2"}, "human GIP receptor [3]": {"biological_target": "T1, human GIP receptor", "test": "cAMP assay Alternative 1 (CisBio assay), GIPR antagonism", "settings": "Table 2A; HEK-293 cells transiently expressing hGIPR; agonist GIP1-42 at EC50", "description": "as §1\nThe in vitro functional activity of compounds towards human GIP receptor can also be determined in HEK-293 cells transiently expressing the receptor. On the day of the assay, cells were resuspended in HBSS buffer (Gibco, 14025-50) supplemented with […] (Gibco, 15630-106), 0.1% Pluronic F-68 (Gibco, 24040-032) and 0.1% casein (Sigma, C4765), and plated in 384-well plates at a density of 5000 cells/well. […] The resulting decrease in intracellular cAMP was quantitatively determined using the CisBio cAMP Dynamic 2 HTRF Assay Kit. […]\nThe cAMP-d2 conjugate and the antibody anti-cAMP-Cryptate, both diluted in lysis buffer provided in the kit, were added to the cells according to the manufacturer's protocol. The resulting competitive assay was incubated for 60 minutes at room temperature, and the signal was detected by using a PerkinElmer Envision® instrument with excitation at 320 nm and emission at 665 nm and 620 nm. […] The resulting increase in intracellular cAMP was determined using the CisBio cAMP Dynamic 2 HTRF Assay Kit as described above. […]"}}, "note": "For some assays here: At least one peptide structure holds a part that was inferred or is arguable (an end, a ring closure or a residue). For some assays here: For at least one compound, name, drawing or mass did not settle the structure. Positions of bridges follow the written chain, without caps; N, C: chain ends. Non-standard residues stand in square brackets, D forms with d. Residues, ends and D or L forms follow the SMILES beside them. Groups on a side chain read outwards from the residue. Chains are numbered I, II in the order given. No end group written: not given here. *: point of attachment. C16 diacid = O=C(O)CCCCCCCCCCCCCCC(=O)*; Aib = CC(C)(N)C(=O)O"}
{"molecule": "CC[C@H](C)[C@H](NC(=O)[C@H](CCCCN)NC(=O)[C@H](CCC(=O)O)NC(=O)[C@H](CC(C)C)NC(=O)C(C)(C)NC(=O)[C@@H](NC(=O)[C@H](CO)NC(=O)[C@H](Cc1ccc(O)cc1)NC(=O)[C@H](CCC(=O)O)NC(=O)[C@H](CO)NC(=O)[C@@H](NC(=O)[C@H](Cc1ccccc1)NC(=O)[C@@H](NC(=O)CNC(=O)[C@@H](N)CCC(=O)O)[C@@H](C)O)[C@@H](C)CC)[C@@H](C)CC)C(=O)N[C@@H](CCCCNC(=O)[C@H](C)NC(=O)[C@H](CCC(=O)O)NC(=O)[C@H](CC(C)C)NC(=O)[C@H](C)NC(=O)CCCCCCCCCCCCCCC(=O)O)C(=O)N[C@@H](CCC(N)=O)C(=O)N[C@@H](CCC(N)=O)C(=O)N[C@@H](CCC(=O)O)C(=O)N[C@@H](Cc1ccccc1)C(=O)N[C@H](C(=O)N[C@@H](CCC(=O)O)C(=O)N[C@@H](Cc1c[nH]c2ccccc12)C(=O)N[C@@H](CC(C)C)C(=O)N[C@@H](CC(C)C)C(=O)N[C@@H](C)C(=O)N[C@@H](CCC(N)=O)C(=O)N[C@@H](CCCCN)C(=O)N1CCC[C@H]1C(=O)N[C@@H](CO)C(=O)N[C@@H](CO)C(=O)NCC(=O)N[C@@H](C)C(=O)N1CCC[C@H]1C(=O)N1CCC[C@H]1C(=O)N1CCC[C@H]1C(=O)N[C@@H](CO)C(=O)O)C(C)C", "note": "[AT725] (H-EGTFISEYSI[Aib]LEKIK([Ala-Glu-Leu-Ala-C16 diacid])QQEFVEWLLAQKPSSGAPPPS-OH; N-terminus assumed)", "values": [{"measurement": "pKb", "setting": "human GIP receptor [1]", "value": 9.2}]}
{"molecule": "CC[C@H](C)[C@H](NC(=O)[C@H](CO)NC(=O)[C@H](Cc1ccc(O)cc1)NC(=O)[C@H](CC(=O)O)NC(=O)[C@H](CO)NC(=O)[C@@H](NC(=O)[C@H](Cc1ccccc1)NC(=O)[C@@H](NC(=O)CNC(=O)[C@@H](N)CCC(=O)O)[C@@H](C)O)[C@@H](C)CC)C(=O)N[C@@H](C)C(=O)N[C@@H](CCSC)C(=O)N[C@@H](CC(=O)O)C(=O)N[C@@H](CCCCN)C(=O)N[C@H](C(=O)N[C@@H](Cc1c[nH]cn1)C(=O)N[C@@H](CCC(N)=O)C(=O)N[C@@H](CCC(N)=O)C(=O)N[C@@H](CC(=O)O)C(=O)N[C@@H](Cc1ccccc1)C(=O)N[C@H](C(=O)N[C@@H](CC(N)=O)C(=O)N[C@@H](Cc1c[nH]c2ccccc12)C(=O)N[C@@H](CC(C)C)C(=O)N[C@@H](CC(C)C)C(=O)N[C@@H](C)C(=O)N[C@@H](CCC(N)=O)C(=O)N[C@@H](CCCCN)C(=O)O)C(C)C)[C@@H](C)CC", "note": "[GIP(3-30), reference compound]", "values": [{"measurement": "pKb", "setting": "human GIP receptor [2]", "value": 8.5}, {"measurement": "cAMP antagonism pIC50", "setting": "human GIP receptor [3]", "value": 7.5}]}
{"molecule": "I: EGTFISEYSI[Aib]LEKIKQQEFVEWLLAQKPSSGAPPPS-OH / II: {C16 diacid}-GGGGS (amide I:16-II:C) [AT722]", "values": [{"measurement": "pKb", "setting": "human GIP receptor [1]", "value": 9.6}, {"measurement": "Kb", "setting": "human GIP receptor [1]; single antagonist dose", "value": 0.28, "unit": "nM"}]}
